# Test results taken from the supplement of paper PMC8728848.
# The other results are listed elsewhere or left out.
# Key:
# Assay in all cases: glycan array binding signal (z-score within array); higher = stronger binding
# Details in all cases: glycan notation: IUPAC condensed, linker removed
# [1] = molecular target: Man(a1-2)Man(a1-3)[Man(a1-2)Man(a1-6)]Man
# Procedure, shortened: (§1)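 Columns mapping to the same glycan were averaged after glycan names were converted to IUPAC-condensed notation. The data come from 3228 arrays in the Consortium for Functional Glycomics database, limited to those with an available protein sequence. Binding is reported as a within-array Z-score averaged across arrays of one protein sequence and across linkers.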
# [2] = molecular target: Man(a1-2)Man(a1-3)[Man(a1-2)Man(a1-6)]Man(a1-6)[Man(a1-2)Man(a1-2)Man(a1-3)]Man
# Procedure, shortened: as §1
# [3] = molecular target: Man(a1-2)Man(a1-3)[Man(a1-2)Man(a1-6)]Man(a1-6)[Man(a1-2)Man(a1-2)Man(a1-3)]Man(b1-4)GlcNAc(b1-4)GlcNAc
# Procedure, shortened: as §1
# [4] = molecular target: Man(a1-2)Man(a1-3)[Man(a1-6)]Man(a1-6)[Man(a1-2)Man(a1-3)]Man(b1-4)GlcNAc(b1-4)GlcNAc
# Procedure, shortened: as §1
# [5] = molecular target: Man(a1-2)Man(a1-6)[Man(a1-3)]Man(a1-6)[Man(a1-2)Man(a1-2)Man(a1-3)]Man
# Procedure, shortened: as §1
# [6] = molecular target: Man(a1-2)Man(a1-6)[Man(a1-3)]Man(a1-6)[Man(a1-2)Man(a1-2)Man(a1-3)]Man(b1-4)GlcNAc(b1-4)GlcNAc
# Procedure, shortened: as §1
# [7] = molecular target: Man(a1-3)[Man(a1-6)]Man
# Procedure, shortened: as §1
# [8] = molecular target: Man(a1-3)[Man(a1-6)]Man(a1-6)[Man(a1-2)Man(a1-3)]Man(b1-4)GlcNAc(b1-4)GlcNAc
# Procedure, shortened: as §1
# [9] = molecular target: Man(a1-3)[Man(a1-6)]Man(a1-6)[Man(a1-3)]Man
# Procedure, shortened: as §1
# [10] = molecular target: Man(a1-3)[Man(a1-6)]Man(a1-6)[Man(a1-3)]Man(b1-4)GlcNAc(b1-4)GlcNAc
# Procedure, shortened: as §1
# [11] = molecular target: Man(a1-3)[Man(a1-6)]Man(b1-4)GlcNAc(b1-4)GlcNAc
# Procedure, shortened: as §1
# [12] = molecular target: Man(a1-3)[Man(a1-6)]Man(b1-4)GlcNAc(b1-4)[Fuc(a1-6)]GlcNAc
# Procedure, shortened: as §1
# [13] = molecular target: Man(a1-6)Man
# Procedure, shortened: as §1
# [14] = molecular target: Man(b1-4)GlcNAc
# Procedure, shortened: as §1
# [15] = molecular target: MurNAc(b1-4)GlcNAc
# Procedure, shortened: as §1
# [16] = molecular target: Neu5Ac(a2-3)Gal
# Procedure, shortened: as §1
# [17] = molecular target: Neu5Ac(a2-3)Gal(b1-3)GalNAc
# Procedure, shortened: as §1
# [18] = molecular target: Neu5Ac(a2-3)Gal(b1-3)GalNAc(b1-3)Gal(a1-4)Gal(b1-4)Glc
# Procedure, shortened: as §1
# [19] = molecular target: Neu5Ac(a2-3)Gal(b1-3)GalNAc(b1-4)Gal(b1-4)Glc
# Procedure, shortened: as §1
# [20] = molecular target: Neu5Ac(a2-3)Gal(b1-3)GalNAc(b1-4)[Neu5Ac(a2-3)]Gal(b1-4)Glc
# Procedure, shortened: as §1
# [21] = molecular target: Neu5Ac(a2-3)Gal(b1-3)GalNAc(b1-4)[Neu5Ac(a2-8)Neu5Ac(a2-3)]Gal(b1-4)Glc
# Procedure, shortened: as §1
# [22] = molecular target: Neu5Ac(a2-3)Gal(b1-3)GalNAc6S
# Procedure, shortened: as §1
# [23] = molecular target: Neu5Ac(a2-3)Gal(b1-3)GlcNAc
# Procedure, shortened: as §1
# [24] = molecular target: Neu5Ac(a2-3)Gal(b1-3)GlcNAc(b1-2)Man
# Procedure, shortened: as §1
# [25] = molecular target: Neu5Ac(a2-3)Gal(b1-3)GlcNAc(b1-2)Man(a1-3)[GlcNAc(b1-4)][Neu5Ac(a2-3)Gal(b1-3)GlcNAc(b1-2)Man(a1-6)]Man(b1-4)GlcNAc(b1-4)GlcNAc
# Procedure, shortened: as §1
# [26] = molecular target: Neu5Ac(a2-3)Gal(b1-3)GlcNAc(b1-2)Man(a1-3)[Neu5Ac(a2-3)Gal(b1-3)GlcNAc(b1-2)Man(a1-6)]Man(b1-4)GlcNAc(b1-4)GlcNAc
# Procedure, shortened: as §1
# [27] = molecular target: Neu5Ac(a2-3)Gal(b1-3)GlcNAc(b1-2)[Neu5Ac(a2-3)Gal(b1-3)GlcNAc(b1-4)]Man(a1-6)[Neu5Ac(a2-3)Gal(b1-3)GlcNAc(b1-2)Man(a1-3)]Man(b1-4)GlcNAc(b1-4)GlcNAc
# Procedure, shortened: as §1
# [28] = molecular target: Neu5Ac(a2-3)Gal(b1-3)GlcNAc(b1-3)Gal(b1-3)GlcNAc
# Procedure, shortened: as §1
# [29] = molecular target: Neu5Ac(a2-3)Gal(b1-3)GlcNAc(b1-3)Gal(b1-4)GlcNAc
# Procedure, shortened: as §1
# [30] = molecular target: Neu5Ac(a2-3)Gal(b1-3)GlcNAc(b1-3)GalNAc
# Procedure, shortened: as §1
# [31] = molecular target: Neu5Ac(a2-3)Gal(b1-3)GlcNAc(b1-6)GalNAc
# Procedure, shortened: as §1
# [32] = molecular target: Neu5Ac(a2-3)Gal(b1-3)GlcNAc6S
# Procedure, shortened: as §1
# [33] = molecular target: Neu5Ac(a2-3)Gal(b1-3)[Fuc(a1-4)]GlcNAc
# Procedure, shortened: as §1
# [34] = molecular target: Neu5Ac(a2-3)Gal(b1-3)[Fuc(a1-4)]GlcNAc(b1-3)Gal(b1-3)[Fuc(a1-4)]GlcNAc
# Procedure, shortened: as §1
# [35] = molecular target: Neu5Ac(a2-3)Gal(b1-3)[Fuc(a1-4)]GlcNAc(b1-3)Gal(b1-4)[Fuc(a1-3)]GlcNAc
# Procedure, shortened: as §1
# [36] = molecular target: Neu5Ac(a2-3)Gal(b1-3)[GlcNAc(b1-6)]GalNAc
# Procedure, shortened: as §1
# [37] = molecular target: Neu5Ac(a2-3)Gal(b1-3)[Neu5Ac(a2-6)]GalNAc
# Procedure, shortened: as §1
# [38] = molecular target: Neu5Ac(a2-3)Gal(b1-3)[Neu5Ac(a2-6)]GlcNAc(b1-3)[Fuc(a1-3)[Gal(b1-4)]GlcNAc(b1-6)]Gal(b1-4)Glc
# Procedure, shortened: as §1
binder,measurement,setting,value
CTAEGIKKFEGDGYELFKDNFPAGEKFDNDDTNDQFYTVIF [MUB40 (Lactobacillus reuteri)],glycan array binding signal (z-score),[1],-0.432
same,glycan array binding signal (z-score),[2],-0.294
same,glycan array binding signal (z-score),[3],-0.182
same,glycan array binding signal (z-score),[4],-0.721
same,glycan array binding signal (z-score),[5],-0.53
same,glycan array binding signal (z-score),[6],-0.33
same,glycan array binding signal (z-score),[7],-0.111
same,glycan array binding signal (z-score),[8],0.761
same,glycan array binding signal (z-score),[9],-0.507
same,glycan array binding signal (z-score),[10],-0.444
same,glycan array binding signal (z-score),[11],-0.289
same,glycan array binding signal (z-score),[12],-0.496
same,glycan array binding signal (z-score),[13],0.152
same,glycan array binding signal (z-score),[14],-0.366
same,glycan array binding signal (z-score),[15],-0.95
same,glycan array binding signal (z-score),[16],-0.258
same,glycan array binding signal (z-score),[17],-0.01
same,glycan array binding signal (z-score),[18],-0.355
same,glycan array binding signal (z-score),[19],0.156
same,glycan array binding signal (z-score),[20],-0.339
same,glycan array binding signal (z-score),[21],1.18
same,glycan array binding signal (z-score),[22],-0.21
same,glycan array binding signal (z-score),[23],-0.358
same,glycan array binding signal (z-score),[24],-0.237
same,glycan array binding signal (z-score),[25],-0.273
same,glycan array binding signal (z-score),[26],-0.198
same,glycan array binding signal (z-score),[27],0.361
same,glycan array binding signal (z-score),[28],-0.628
same,glycan array binding signal (z-score),[29],0.194
same,glycan array binding signal (z-score),[30],0.411
same,glycan array binding signal (z-score),[31],-0.351
same,glycan array binding signal (z-score),[32],-0.471
same,glycan array binding signal (z-score),[33],-0.554
same,glycan array binding signal (z-score),[34],0.452
same,glycan array binding signal (z-score),[35],0.023
same,glycan array binding signal (z-score),[36],1.11
same,glycan array binding signal (z-score),[37],-0.157
same,glycan array binding signal (z-score),[38],-0.114
